Measurements: the RNAGym collection of RNA variant scans (doi:10.1093/nar/gkz1192)
The source gives no read counts; variants with many changes may rest on few reads.

B1: CPEB3 Ribozyme (parent)
chain: UAACAGGGGGCCACAGCAGAAGCGUUCACGUCGCAGCCCCUGUCAGAUUCUGGUGAAUCUGCGAAUUCUGCUGUAUAUCUC

Variants of: B1
Experiment: self-cleavage, relative activity (ratio to wild type); higher = more cleavage; in vitro, sequencing
How it was run: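 Libraries of CPEB3 self-cleaving ribozyme mutants came from rounds of error-prone PCR and carried barcodes, which DNA sequencing matched to variants. In vitro transcription used T7 RNA polymerase at 37°C for 5 hours, with a further 15 min in DNase I before EDTA stopped the reaction; the ribozymes cleaved during both steps. The RNA was reverse transcribed with template switching and sequenced on Illumina. Relative activity is the cleaved/total read fraction of a variant divided by that of the unmutated ribozyme, averaged over three batches with at least 5 reads.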

Variant | self-cleavage
UAACAGGGGGCCACAGCAGAAGCGUCCACGUCGCGGCCCCUGUCAGAUUCUGGUGAAUCCGCGGAUUCUGCUGUAUAUCUC [U26C A35G U60C A64G] | 0.25
UAACAGGGGGCCACAGCAGAAGCGUCCACGUCGCUGCCCCUGUCAGAUUCUGGUGAAUCUGCGAAUUCUGCUGUUUAUCUC [U26C A35U A75U] | 0.25
UAACAGGGGGCCACAGCAGAAGCGUCCACGUCGCAGCCCCUGUCUGAUUCUGGUGAAUCUGCGAAUUCUGUUGUAUAUCUC [U26C A45U C71U] | 0.25
UAACAGGGGGCCACAGCAGAAGCGUCCACGUCGCGGCCCCUGUCAGAUUCUGGUGAAUCUGCGAGUUCUGCUGUAUAUCUC [U26C A35G A65G] | 0.81
UAACAGGGGGCCACAGCAGAAGCGUCCACGUCGCUGCCCCUGCCAGAUUCUGGCGAAUCUGCGUAUUCUGCUGUAUAUCUC [U26C A35U U43C U54C A64U] | 0.16
UAACAGGGGGCCACAGCAGAAGCGUCCUCGUCGCAGCCCCUGUCAGAUUCUGGUGAAUCUGCGAAUUCUGCUGUAUAUCCC [U26C A28U U80C] | 0.34
UAACAGGGGGCCACAGCAGAAGCGUCCUCGUCGCAGCCCCUGUCGGAUUCUGGUGAAUCUGCGAAUCCUGCUGUAUAUCUC [U26C A28U A45G U67C] | 0.15
UAACAGGGGGCCACAGCAGAAGCGUCCUCGUCGCAGCCCCUGUCAGGUUCUGGUGAAUCUGCGAAUUCUGCAGUAUAUCUC [U26C A28U A47G U72A] | 0.22
UAACAGGGGGCCACAGCAGAAGCGUCCACGUCGCGGCCCCUGUCAGAUUCUGGUGAAUCUGCGGAUUCUGCUGUAUAUCUC [U26C A35G A64G] | 0.82
UAACAGGGGGCCACAGCAGAAGCGUCCACGUCGCAGCCCCUGUCGGAUUCUGGUGAAUCUGCGUAUUCUGCUGUAUAUCUC [U26C A45G A64U] | 0.16
UAACAGGGGGCCACAGCAGAAGCGUCCUCGUCGCAGCCCCUGACAGAUCCUGGUGAAGCUGCGAAUUAUGGUGUAUAUCUC [U26C A28U U43A U49C U58G C68A C71G] | 0.11
UAACAGGGGGCCACAGCAGAAGCGUCCACGUCGCUGCCCCCGUCAGAUUCUGGUGGAUCUGCGAAUUCUGCUGUACAUCUC [U26C A35U U41C A56G U76C] | 0.12
UAACAGGGGGCCACAGCAGAAGCGUCCUCGCCGCAGCCCCCGACAGAUUCUGGUGAAUCUGCGAAUUCUGCUGUAUGUCUC [U26C A28U U31C U41C U43A A77G] | 0.13
UAACAGGGGGCCACAGCAGAAGCGUCCGCGUCGCAGCCCCUGUCAGAUUCUGGUGAAUCCGCGAAUUCUGCUGUAUAUCUU [U26C A28G U60C C81U] | 0.15
UAACAGGGGGCCACAGCAGAAGCGUCCACGUCGCGGCCCCUGCCAGAUUCUGGUGAAUCCGCGAAUUCUGCUGUAUAUCGC [U26C A35G U43C U60C U80G] | 0.63
UAACAGGGGGCCACAGCAGAAGCGUCCACGUCGCGGCCCCUGUCAGAUUCAGGUGAAUCUGCGAAUUCUGCUGUAUAUCUC [U26C A35G U51A] | 1.15
UAACAGGGGGCCACAGCAGAAGCGUCCGCGUCGCAGCCCCUGUCAGAUUCUGGCGAAUCUGCGAAUUCUGCUGUAUAUCUC [U26C A28G U54C] | 0.18

Variant | self-cleavage
UAACAGGGGGCCACAGCAGAAGCGUCCACGUCGCUGCCCCUGUCAGAUUCUGGUGAAUCUGCGAAUCCAGCUGUACAUCUC [U26C A35U U67C U69A U76C] | 0.11
UAACAGGGGGCCACAGCAGAAGCGUCCACGUCGCUGCCCCUAUCAGAUUCUGGUGAAUCUGCGAAUUCCGCUGUAUAUCUC [U26C A35U G42A U69C] | 0.2
UAACAGGGGGCCACAGCAGAAGCGUCCACGUCGCAGCCCCUGUCUGAUUCUGGUGAAUCUGCGAGUUCUGCUGUAUAUCUC [U26C A45U A65G] | 0.16
UAACAGGGGGCCACAGCAGAAGCGUCCACGUCGCGGCCCCUGCCAGAUUCUGGUGAAUCUGCGAAUUCUGCUGUAUGUCUC [U26C A35G U43C A77G] | 1.22
UAACAGGGGGCCACAGCAGAAGCGUCCACGUCGCAGCCCCUGUCCGAUUCUGGCGAAUCUGCGAAUUCUGCUGUAUAUCUC [U26C A45C U54C] | 0
UAACAGGGGGCCACAGCAGAAGCGUCCACGUCGCGGCCCCUGUCAGAUUCUGGUGAAUCUGCGAUUUCUGCAGUAUAUCUC [U26C A35G A65U U72A] | 0.14
UAACAGGGGGCCACAGCAGAAGCGUCCACGUCGCUGCCCCUGCCAGAUUCUGGUGAAUCUGCGAAUUCCGCUGUAUAUCUC [U26C A35U U43C U69C] | 0.07
UAACAGGGGGCCACAGCAGAAGCGUCCACGUCGCAGCCCCUGUCGGAUUCUGGUGAAUCUGCGAAUUCUGCUGUAUACCUC [U26C A45G U78C] | 0.27
UAACAGGGGGCCACAGCAGAAGCGUCCACGUCGCAGCCCCUGUCGGAUUCUGGUGAGUCUGCGAAUUCUGCUGUAUAUCUC [U26C A45G A57G] | 0.33
UAACAGGGGGCCACAGCAGAAGCGUCCACGUCGCUGCCCCUGUCUGACUCUGGAGAAUCUGCGAUUUCUGCUGUGUAUCUC [U26C A35U A45U U48C U54A A65U A75G] | 0.15
UAACAGGGGGCCACAGCAGAAGCGUCCACGUCGCGGCCCCUGUCAGAUUCUGGCGAAUCUGCGAAUUCUGCUGUAUAUCUC [U26C A35G U54C] | 1.09
UAACAGGGGGCCACAGCAGAAGCGUCCACGUCGCGGCCCCUGUCAGAUUCUGGAGAAUCUGCGAAUUCUGCUGUAUAUCUC [U26C A35G U54A] | 1.14
UAACAGGGGGCCACAGCAGAAGCGUCCACGUCGCAGCCCCUGUCGGGUUCUGGUGAAUCUGCGAAUUCUGCUGUAUAUCUC [U26C A45G A47G] | 0.37
UAACAGGGGGCCACAGCAGAAGCGUCCACGUCGCAGCCCCUGUCGGAUUCUGGAGAAUCUGCGAAUUCUGCUGUAUAUCUC [U26C A45G U54A] | 0.21
UAACAGGGGGCCACAGCAGAAGCGUCCGCGUCGCAGCCCCUGUCAGAUUCUGGUGAAGCUGCGAAUCCUGCUGUAUAUCUC [U26C A28G U58G U67C] | 0.11
UAACAGGGGGCCACAGCAGAAGCGUCCACGUCGCAGCCCCUGUCGGAUUCUGGGGAGUCUGCGAAUUCUGCUGUAUAUCUC [U26C A45G U54G A57G] | 0.06
UAACAGGGGGCCACAGCAGAAGCGUCCACGUCGCUGCCCCUGUCAGAUUCCGGUGAAUCCGCGAAUUCUGCUGUAUAUCUC [U26C A35U U51C U60C] | 0.12
